Data reported in article PMC4336329 (PLoS ONE, 2015).
Hit rate of the full screen: of about 310,000 compounds, about 14,000 (4.5%) showed an effect of 50% or more. Effects have a minus sign here. The list shows a part of the results.

Each compound was assayed against human ether-à-go-go-related gene (hERG) potassium channel (human, UniProt Q12809) (assay: primary screen, population patch clamp on CHO cells stably expressing hERG).
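Further: peak tail current of the secondary pulse compared with the same well before compound.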

human ether-à-go-go-related gene (hERG) potassium channel, sequence (Q12809 whole entry, looked up): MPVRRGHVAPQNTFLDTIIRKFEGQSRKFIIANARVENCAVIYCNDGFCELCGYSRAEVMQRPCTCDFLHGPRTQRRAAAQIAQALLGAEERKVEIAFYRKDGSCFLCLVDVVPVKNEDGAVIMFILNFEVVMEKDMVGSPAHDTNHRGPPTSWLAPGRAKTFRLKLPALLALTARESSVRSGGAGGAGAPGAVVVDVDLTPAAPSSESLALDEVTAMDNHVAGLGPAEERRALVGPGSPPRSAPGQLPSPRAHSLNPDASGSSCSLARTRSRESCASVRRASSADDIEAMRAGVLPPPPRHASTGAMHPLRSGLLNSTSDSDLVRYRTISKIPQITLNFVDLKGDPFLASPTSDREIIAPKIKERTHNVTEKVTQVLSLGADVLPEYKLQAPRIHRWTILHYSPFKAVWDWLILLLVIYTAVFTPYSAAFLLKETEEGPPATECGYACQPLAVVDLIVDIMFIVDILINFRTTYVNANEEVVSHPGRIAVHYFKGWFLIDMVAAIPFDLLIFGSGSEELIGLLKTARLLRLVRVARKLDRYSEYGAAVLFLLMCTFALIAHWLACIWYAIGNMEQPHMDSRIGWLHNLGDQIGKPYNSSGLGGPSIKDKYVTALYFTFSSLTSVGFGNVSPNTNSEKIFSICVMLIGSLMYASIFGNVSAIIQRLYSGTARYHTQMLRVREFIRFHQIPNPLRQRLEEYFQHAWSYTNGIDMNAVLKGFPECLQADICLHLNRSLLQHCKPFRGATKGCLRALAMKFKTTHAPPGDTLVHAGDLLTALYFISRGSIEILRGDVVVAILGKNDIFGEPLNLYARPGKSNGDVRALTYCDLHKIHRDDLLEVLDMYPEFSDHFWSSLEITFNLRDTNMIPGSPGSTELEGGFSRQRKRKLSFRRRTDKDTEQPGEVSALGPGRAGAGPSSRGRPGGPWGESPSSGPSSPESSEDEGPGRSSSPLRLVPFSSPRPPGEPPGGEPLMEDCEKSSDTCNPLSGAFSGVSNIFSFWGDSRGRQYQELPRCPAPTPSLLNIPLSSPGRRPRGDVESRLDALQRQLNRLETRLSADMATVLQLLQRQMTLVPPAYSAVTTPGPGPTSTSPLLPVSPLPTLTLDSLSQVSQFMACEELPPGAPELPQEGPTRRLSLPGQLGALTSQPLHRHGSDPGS

| SMILES | hERG current change (%, negative = inhibition) at 10uM [%] |
| --- | --- |
| CCOc1ccccc1N(CC(=O)Nc1cc(OC)ccc1OC)S(=O)(=O)c1ccccc1 | 22.7 |
| COCCN1C(=O)c2ccc(C(=O)Nc3cccnc3)cc2C1=O | 9.67 |
| CC1=C(C(=O)OC2CCCCC2)C(c2ccco2)n2ncnc2N1 (stereo not drawn) | 6.97 |
| Cc1ccc(N2CC(O)Cn3c2nc2c3c(=O)n(C)c(=O)n2C)cc1 (stereo not drawn) | 16.6 |
| COc1ccc(-c2noc(CN(C)C(=O)c3ccc4c(c3)OCO4)n2)cc1 | -25.5 |
| O=c1cc(-c2ccccc2Cl)oc2cccc(O)c12 | -8.9 |
| CC(CN1CCOCC1)OC(=O)C1COc2ccccc2O1.Cl (stereo not drawn) | 19 |
| CCN(CC)S(=O)(=O)c1ccc(NC(=S)NC(=O)CC(C)C)cc1 | -5.43 |
| O=C(CSCC(=O)NCc1ccco1)NCc1ccco1 | -66 |
| O=S(=O)(c1cccs1)N1CCN(Cc2nc3ccccc3s2)CC1 | -27.8 |
| Cc1ncc([N+](=O)[O-])n1CCOC(=O)c1cc(Cl)cc(Cl)c1N | -39 |
| CCCn1nc(-c2nnc(-c3ccc(C)c(C)c3)o2)c2ccccc2c1=O | -8.54 |
| CCC(C)n1c(=N)c(C#N)cc2c(=O)n3cc(C)ccc3nc21 (stereo not drawn) | -70.9 |
| Cn1ccnc1SCC(=O)NC12CC3CC(CC(C3)C1)C2 | 7.72 |
| Cc1ccc(OCC(=O)N(C)CCc2ccccn2)cc1 | 10 |
| COc1ccc(/C=C/c2c(-c3ccc(OC)cc3)oc3ccccc23)cc1 | -8.16 |
| Cc1ccc(CN2CCN(/N=C/c3cc(Br)cc(Br)c3O)CC2)cc1 | 5.09 |
| C=CCc1cc(OC)ccc1OCC(O)CN1CCN(c2ccc(OC)cc2)CC1.Cl (stereo not drawn) | -71.2 |
| O=P(Nc1c(Cl)cccc1Cl)(c1ccccc1)c1nc2c(s1)CCCC2 (stereo not drawn) | 10 |

| SMILES | hERG current change (%, negative = inhibition) at 10uM [%] |
| --- | --- |
| Cc1cccc(NC(=O)CCN2C(=O)c3ccccc3S2(=O)=O)c1C | -13.1 |
| Cc1cccc(C)c1NC(=O)NCCCN1CCN(c2ccccc2)CC1 | -41.1 |
| CSc1ccc(S(=O)(=O)NCCSC(C)(C)C)cc1 | -10.9 |
| CN(C)S(=O)(=O)c1ccc(C(=O)NCCOc2ccccc2)cc1 | -17.2 |
| O=C(NCc1cccc(Br)c1)C1CC(c2ccccc2[N+](=O)[O-])=NO1 (stereo not drawn) | -42 |
| CC(=O)Nc1ccc(OCC(O)Cn2nc(C)c(C)c2C)cc1 (stereo not drawn) | 11.5 |
| CC1CCN(c2ccc3nnc(CCC(=O)NCCCOC(C)C)n3n2)CC1 | 2.68 |
| O=C(NC1CCCCCC1)c1cccc(COCC(F)(F)F)c1 | -14 |
| O=C1N(CCCN2C(=O)C3(OCCO3)c3ccccc32)c2ccccc2C12OCCO2 | -1.41 |
| CCc1ccccc1NC(=O)Nc1cc(F)ccc1F | -0.245 |
| CC1CCN(C(=O)Cn2c(SCC(=O)Nc3nccs3)nc3ccccc32)CC1 | -18.8 |
| COc1ccccc1N1CCN(/N=C/c2cc(Br)ccc2F)CC1 | 9.43 |
| CC(C)n1c(N2CCN(CC(=O)NCc3cccs3)CC2)nc2ccccc21 | -60.8 |
| CC(C)C(OC(=O)c1cccs1)C(=O)NCc1ccccc1 (stereo not drawn) | 4.34 |
| CC1(C)NC(=O)N(CC(=O)N2CCN(S(=O)(=O)c3ccccc3C(F)(F)F)CC2)C1=O | 14 |
| COC(=O)C1=C(C)N(CCCC(=O)O)C(=O)NC1c1cccc(OC)c1 (stereo not drawn) | 3.7 |
| COc1ccccc1C(=O)N1CC2(C)CC1CC(C)(C)C2 (stereo not drawn) | 6.53 |
| Cc1ccc(-n2nnnc2-c2cnoc2-c2cccc(F)c2)cc1 | -13.6 |
| COc1cccc(N2CCN(C(=S)Nc3ccccc3)CC2)c1 | 19 |

| SMILES | hERG current change (%, negative = inhibition) at 10uM [%] |
| --- | --- |
| Cc1ccnc(NC(=O)Cc2c(F)cccc2Cl)c1 | 0.992 |
| CCC1(C)Cc2c(sc3nc(NC)n(C)c(=O)c23)CO1.Cl (stereo not drawn) | 5.53 |
| COc1cc(CN2CCCCCC2)cc([N+](=O)[O-])c1O | 10.1 |
| CC(Oc1ccc(C(=O)c2ccc(F)cc2)cc1)C(=O)N1CCOCC1 (stereo not drawn) | 10 |
| Cc1cc(C)c(C#N)c(SCc2nnc(-c3ccccc3[N+](=O)[O-])o2)n1 | 3.4 |
| CCCc1nc(NC(=O)c2ccccc2)nc(NC(=O)c2ccccc2)n1 | -48.6 |
| COc1ccc(C(=O)N/N=C/c2ccc(OC(=O)c3cccs3)cc2)cc1 | 10.2 |
| O=C(COc1ccccc1)Nc1ccc([N+](=O)[O-])cc1 | 1.57 |
| CCOc1ccccc1NC(=O)COC(=O)COc1c(Cl)cc(Cl)c2ccc(C)nc12 | 21.7 |
| COC(=O)c1ccccc1NC(=O)CN1C(=O)c2ccccc2S1(=O)=O | 2.35 |
| CCOc1ccc(CCNC(=O)CCc2nc(-c3ccc(OC)cc3)no2)cc1OCC | 9.11 |
| O=C(C1CCCN1S(=O)(=O)c1cccc2nsnc12)N1CCCCCC1 (stereo not drawn) | 7.97 |
| CCN(CC)S(=O)(=O)c1ccc(C(=O)Nc2nnc(-c3ccco3)o2)cc1 | 9.76 |
| CCOC(=O)C1=C(COC(=O)CNC(=O)c2cc(OC)c(OC)c(OC)c2)NC(=O)NC1C (stereo not drawn) | -5.35 |
| O=C(CSCc1cc(=O)n2ccsc2n1)Nc1ccccc1 | 5.23 |
| O=C(NNC(=O)C1CC(c2cccs2)=NO1)Nc1ccc(Cl)cc1 (stereo not drawn) | 17.4 |
| CCOC(=O)[C@H]1[C@H]2COc3ccc(Cl)cc3[C@@H]2N2C(=O)c3cc(F)c(F)cc3NC(=O)[C@@]12C | -1.29 |
| CC1(C)Oc2ccc(C(=O)N/N=C/c3ccc(O)cc3)cc2NC1=O | 11 |
| N#Cc1cc2c(nc1SCC(=O)N1CCOCC1)CCCCC2 | 6.83 |
